Laboratory results reported in PubChem BioAssay AID1346428 (National Center for Advancing Translational Sciences (NCATS), 2018).
Several values for one entry are separate records, joined by “and”; a condition that tells them apart may be missing. Identical values can stand only once. About 1,200 (2.5%) of roughly 48,000 compounds were called active. Roughly 2% stayed inconclusive and do not appear here.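 Rule for the calls: active = activation of at least 60% and not above a set upper limit (about 1 call in 100 departs from these limits); inconclusive = activation of 40% to 60%, or above that upper limit; inactive = activation under 40%.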 Some of the results follow.

Each compound was assayed against Probable G-protein coupled receptor 32 (Homo sapiens) (UniProt O75388) (assay: qHTS for Agonists of Human Resolvin D1 Receptor DRV1). Conditions: CHO-K1 GPR32 beta-arrestin PathHunter luminescence, 90 min; at 76.9 µM; stronger effect = higher value; zero percent set by DMSO-only wells.
Sequence of UniProt O75388 (O75388 whole entry, looked up): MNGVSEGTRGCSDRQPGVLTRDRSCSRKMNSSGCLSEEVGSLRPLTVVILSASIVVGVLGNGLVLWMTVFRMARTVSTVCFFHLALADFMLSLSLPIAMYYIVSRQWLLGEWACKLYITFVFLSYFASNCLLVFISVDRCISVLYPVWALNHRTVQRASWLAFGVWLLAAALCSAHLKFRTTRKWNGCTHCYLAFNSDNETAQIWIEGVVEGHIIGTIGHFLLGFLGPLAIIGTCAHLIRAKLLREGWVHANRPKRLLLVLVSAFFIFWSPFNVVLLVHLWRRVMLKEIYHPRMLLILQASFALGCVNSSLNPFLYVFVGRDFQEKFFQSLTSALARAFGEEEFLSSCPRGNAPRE
Method in brief: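 Using DMSO wells as EC0, agonist-induced signal was taken as chemiluminescence from beta-Gal reconstituted upon beta-arrestin recruitment to GPR32 in CHO-K1 cells after 90 min compound treatment.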
With `COc1cc(/C=C(\C#N)c2nc3ccccc3[nH]2)ccc1OCc1ccc(F)cc1` the activation was inactive: 31.1%.
With `COc1cc(-c2nc(SCC(=O)Nc3ccc(C)cc3)c(-c3ccc(F)cc3)[nH]2)cc(OC)c1OC` the activation was inactive: -24.4%.
In the case of `CN(Cc1cnc2nc(N)nc(N)c2n1)c1ccc(C(=O)N[C@@H](CCC(=O)O)C(=O)O)cc1`, the activation is reported as inactive: 7% and inactive: -1.2%.
In the case of `COc1ccccc1CNc1nc(-c2ccco2)nn1C(=O)c1cc(OC)c(OC)c(OC)c1`, the activation is reported as inactive: -0.334%.
With `CCc1ccccc1NC(=O)c1cc(S(=O)(=O)N2CCc3ccccc32)ccc1F` the activation was inactive: -25.7%.
`CCCn1c2ccccc2c2cnn(CC(=O)NCC3CCN(Cc4ccc(F)cc4)CC3)c(=O)c21` was tested, and the activation was inactive: -7.68%.
With `COc1ccccc1N1CCN(C(=O)c2cnn(-c3cccc(Cl)c3)c2C2CCN(C(=O)OC(C)(C)C)CC2)CC1` the activation was inactive: -25.4%.
In the case of `Cc1cccc(-c2nn3c(=O)cc(CN4CCN(C(=O)c5ccccc5Br)CC4)nc3s2)c1`, the activation is reported as inactive: -4.5%.
For `C#CC(C)(CC)NC(=O)Cn1nnc(-c2ccc(OCc3ccccc3C)cc2)n1` (stereo not given), the activation was active: 61.9%.
`Cc1ccccc1CNC(=O)C1=Cc2ccccc2OC1` was tested, and the activation was inactive: -18.4%.
In the case of `Cn1c(=O)c2c(nc(N3CCOCC3)n2Cc2cccc(Br)c2)n(C)c1=O`, the activation is reported as inactive: -11.9%.
`COc1ccc(N2CCN(C(CNC(=O)C(=O)NCc3cccnc3)c3cccnc3)CC2)cc1` (stereo not given) was tested, and the activation was inactive: -5.83%.
For `Cc1ccccc1CNC(=O)Cc1ccc(NC(=O)N2CCCCc3ccccc32)cc1`, the activation was inactive: -17.3%.
`Cc1[nH]n2c(=O)cc(-c3ccc(Cl)cc3)nc2c1-c1ccccc1` was tested, and the activation was inactive: -13.6%.
With `Cc1ccc(-c2cc(N)n(-c3ccc(C)cc3)n2)cc1` the activation was inactive: -24.9%.
For `CC(=O)OC[C@H]1O[C@@](COC(C)=O)(O[C@H]2O[C@H](COC(C)=O)[C@@H](OC(C)=O)[C@H](OC(C)=O)[C@H]2OC(C)=O)[C@@H](OC(C)=O)[C@@H]1OC(C)=O`, the activation was inactive: -7.76%.
In the case of `Cc1c(C(=O)N2CCCCC2)c(S(=O)(=O)NCc2ccc(N(C)C)cc2)c(C)n1C`, the activation is reported as inactive: -6.91%.
For `CCOc1ccc(C(=O)c2cn(CC(=O)Nc3cccc(OC)c3)c3cc4c(cc3c2=O)OCCO4)cc1`, the activation was inactive: 10.2%.
`Cc1nn2c(-c3ccco3)ccnc2c1-c1ccc(Br)cc1` was tested, and the activation was inactive: 16%.
In the case of `COc1ccc(CNC(=O)c2ccc3nc(CCc4ccccc4)oc3c2)cc1`, the activation is reported as inactive: 4.11%.
`COc1ccccc1CNC(=O)C(C)n1ccc2cc(S(=O)(=O)N3CCCC3)ccc21` (stereo not given) was tested, and the activation was inactive: -11.1%.
`Cc1cccc(N2CCN(C(=O)C3CCN(C(=O)c4cc5sccc5n4C)CC3)CC2)c1C` was tested, and the activation was inactive: 27%.
`Cc1ccc(C2Nc3cc(C)c(C)cc3-n3c(-c4ccccc4)c4c(=O)n(C)c(=O)n(C)c4c32)o1` (stereo not given) was tested, and the activation was inactive: -1.82%.
`Cc1ccc(-c2[nH]c3c(c2-c2c(-n4cccc4)n(C)c(=O)[nH]c2=O)c(=O)[nH]c(=O)n3C)cc1` was tested, and the activation was inactive: -5.07%.
With `CCOC(=O)c1c(C)oc2nc(C)nc(N3CCN(c4ccccc4F)CC3)c12` the activation was inactive: -6.71%.
`CCOc1ccc(NC(=O)C2CCN(c3nnc(C)c4c(C)n(-c5ccccc5)nc34)CC2)cc1` was tested, and the activation was inactive: -9.44%.
In the case of `Cc1ccc(NC(=O)CSc2nc3c([nH]c4ccccc43)c(=O)n2-c2ccccc2)cc1Cl`, the activation is reported as inactive: -26.8%.
With `CC1Cn2c(C(=O)NCCc3ccc(Cl)cc3)cc3cccc(c32)S1` (stereo not given) the activation was inactive: -22.3%.
For `CCN(CC)CCNc1ccc(CO)c2sc3ccccc3c(=O)c12`, the activation was inactive: 18.4%.
In the case of `Cc1ccc(F)cc1NC(=O)CCc1c(C)nn(-c2ccc(N3CCOCC3)nn2)c1C`, the activation is reported as inactive: 7.48%.
For `Cc1ccc2[nH]cc(S(=O)(=O)c3ccc(C)c(C)c3)c(=O)c2c1`, the activation was inactive: -1.34%.
With `CSc1ccc(C2CC(=O)Oc3c2c(=O)n(C)c2ccccc32)cc1` (stereo not given) the activation was inactive: -8.85%.
With `COc1ccc(NC(=O)CCS(=O)(=O)c2nc(-c3ccc4c(c3)OCO4)cc(C(F)(F)F)n2)cc1` the activation was inactive: -24.5%.
`COc1ccc(C)cc1NC(=O)CCc1c(C)nn(-c2ccc(N3CCCCC3)nn2)c1C` was tested, and the activation was inactive: -3.62%.
With `Cc1ccc(/C=C/c2onc(C)c2S(=O)(=O)N2CCC(C(=O)N3CCOc4ccc(C)cc43)CC2)cc1` the activation was inactive: -27.4%.
For `Cc1c(C(=O)N2CCCC2)oc2c1-c1nn(CC(=O)NCc3ccccc3Br)cc1CC2`, the activation was inactive: -1.24%.
`COc1ccc(-c2cc(C(=O)Oc3ccc(C)cc3)c3cc(C)ccc3n2)cc1` was tested, and the activation was inactive: -21.6%.
`O=C(CN1C(=O)COc2ccc(S(=O)(=O)N3CCCCCC3)cc21)Nc1cccc(Cl)c1` was tested, and the activation was inactive: -24.9%.
In the case of `CCOc1ccc2nc3cc(N)ccc3c(N)c2c1`, the activation is reported as inactive: 44.3%.
With `CC1CCN(c2nn3c(=O)c(C(=O)NCCc4ccccc4)cnc3s2)CC1` the activation was inactive: -1.76%.
For `Cc1cc(=O)n(C(C)C(=O)N2CCCc3ccccc32)c2c1c(C)nn2-c1ccccc1` (stereo not given), the activation was inactive: 3.35%.
For `Cc1c(C(=O)NCc2ccccc2)sc2nc[nH]c(=O)c12`, the activation was inactive: -11.4%.
`Cc1ccc(CCNc2nc3c(S(=O)(=O)c4ccccc4)nnn3c3ccsc23)cc1` was tested, and the activation was inactive: -7.51%.
`COc1cc(-c2noc(-c3ccc(N(C)C)c([N+](=O)[O-])c3)n2)cc(OC)c1OC` was tested, and the activation was inactive: -1.25%.
With `O=C(Nc1cc(-c2nc3ccccc3o2)ccc1Cl)c1ccc(Br)o1` the activation was inactive: -16.2%.
For `CSc1ccc2c(c1)N(CCC1CCCCN1C)c1ccccc1S2` (stereo not given), the activation was inactive: 32% and inactive: 3.95%.
In the case of `O=C(Cn1c(-c2cccs2)cc2cc(F)ccc21)N1CCN(c2cccc(Cl)c2)CC1`, the activation is reported as inactive: 0.785%.
In the case of `COc1cccc(Cc2nc3ccccc3nc2SCC(=O)N2CCN(c3ccccc3)CC2)c1`, the activation is reported as inactive: -30.3%.
In the case of `Cc1ccccc1Cn1c2ccccc2c2cnn(CC(=O)NCCCc3ccccc3)c(=O)c21`, the activation is reported as inactive: 29.3%.
With `COc1cccc2c1cc1c(=O)n(CC(=O)O)nc(C)n12` the activation was inactive: -6.89%.
For `CCOc1ccc(-c2c(C)nn3c(C)c(C(=O)NCCc4ccccc4)cnc23)cc1OCC`, the activation was inactive: 19.9%.
For `COc1ccc2c(c1)c1c(c(=O)n(-c3ccc(F)c(Cl)c3)c(=O)n1CC(N)=O)n2C`, the activation was inactive: -12.3%.
In the case of `CC(=O)Nc1ccc(S(=O)(=O)NC2(C(F)(F)F)NC(=O)N(c3ccccc3F)C2=O)cc1` (stereo not given), the activation is reported as inactive: -7.56%.
In the case of `CCC1CN(C(=O)Nc2cccc(OC)c2)c2ccccc2O1` (stereo not given), the activation is reported as inactive: -30.7%.
`Cn1nc(C(=O)N2CCN(c3ccc(Cl)cc3)CC2)c2c1-c1ccccc1S(=O)(=O)C2` was tested, and the activation was inactive: -4.91%.
`COc1ccccc1CNC(=O)CSc1cc(=O)n(C)c2ccccc12` was tested, and the activation was inactive: 7.21%.
With `COc1ccc(-c2cc(C(F)(F)F)nc(NCc3ccc(Cl)cc3)n2)cc1` the activation was inactive: -7.88%.
In the case of `CCOc1ccc(Nc2sc(C(=O)c3ccc4c(c3)OCO4)c(N)c2S(=O)(=O)c2ccc(C)cc2)cc1`, the activation is reported as inactive: -5.84%.
`NC1C=CC=C(C(=O)O)C1` (stereo not given) was tested, and the activation was inactive: -0.509%.
In the case of `O=C1CC(c2nnc(Cc3cccc(Cl)c3)o2)CN1c1ccccc1` (stereo not given), the activation is reported as inactive: -4.86%.
`CCOc1ccc(C2C(C(=O)Nc3ccccc3OC)=C(C)Nc3c(C(=O)Nc4cccc(C)c4)cnn32)cc1` (stereo not given) was tested, and the activation was inactive: -13.6%.
In the case of `CC1CCCCN1S(=O)(=O)c1cc2c(=O)nc3ccccn3c2cc1Cl` (stereo not given), the activation is reported as inactive: 17.4%.
In the case of `CC(C)(Sc1ccc(CCN(CCCCC2CCCCC2)C(=O)NC2CCCCC2)cc1)C(=O)O`, the activation is reported as inactive: -6.14%.
For `COc1cccc(-c2cc(C(=O)Nc3ccc(Br)c(C)c3)[nH]n2)c1`, the activation was inactive: -1.83%.
In the case of `Cc1ccc2c(c1)cc1c(=O)n(Cc3ccc(Cl)cc3)nc(C)n12`, the activation is reported as inactive: -15.2%.
With `COc1ccc(-n2c(=O)c3ccc(C(=O)NCc4ccc(C)cc4)cc3n(Cc3cccc(Cl)c3)c2=O)cc1` the activation was inactive: -1.91%.
With `COc1ccc(CN(Cc2ccco2)C(=O)c2ccccc2F)cc1` the activation was inactive: -21%.
With `CCn1c(CC2C(=O)Nc3ccccc32)nc2ccccc2c1=O` (stereo not given) the activation was inactive: -37.3%.
`Cc1cccc(C)c1NS(=O)(=O)c1ccc2c(c1)[C@H]1C=CC[C@H]1[C@@H](c1ccc(Cl)cc1)N2` was tested, and the activation was inactive: -16.4%.
`CCOc1ccccc1NC(=O)Cn1c(=O)n(-c2ccccc2)c(=O)c2c1c1cc(C)ccc1n2C` was tested, and the activation was inactive: -2.74%.
In the case of `COc1ccc(NC(=O)CN2C(=O)CCc3cc(S(=O)(=O)N4CCOCC4)ccc32)c(OC)c1`, the activation is reported as inactive: -34.4%.
For `COc1ccc(-c2cn3c(n2)sc2cc(C(=O)NCCCN4CCCCC4)ccc23)cc1`, the activation was inactive: -9.13%.
For `CCCS(=O)c1ccc2nc(NC(=O)OC)[nH]c2c1` (stereo not given), the activation was inactive: -22.9%.
`CCN(C(=O)CSc1nnc(-c2cc3occc3n2C)n1-c1ccccc1C)c1cccc(C)c1` was tested, and the activation was inactive: -15.8%.
`CCc1ccc(CNC(=O)CSc2cc(=O)n(CC)c3ccccc23)cc1` was tested, and the activation was active: 60.5%.
`CCNC(=O)c1c(C)oc2ncn(C)c(=O)c12` was tested, and the activation was inactive: -1.82%.
In the case of `CCN(CC)C(=O)c1cnn(-c2ccc(F)cc2)c1-n1cccc1`, the activation is reported as inactive: -1.81%.
For `COc1ccc(N2CCN(C(=O)c3ccc4c(=O)n(CCc5ccc(OC)c(OC)c5)c(=O)[nH]c4c3)CC2)cc1`, the activation was inactive: -2.68%.
For `CCc1nn(CC(=O)N(CC)Cc2ccccc2)c(=O)c2cc3occc3n12`, the activation was inactive: 1.25%.
In the case of `Cc1nn(CCCC(=O)Nc2cc(C(F)(F)F)ccc2Cl)c(=O)c2c1sc1ccccc12`, the activation is reported as inactive: -4.19%.
